In PMC7718735:
These are yes or no findings as the source states them, for the method shown.

Target: T1, Ima1 MYTH bait (S. pombe), O13681
T1 chain: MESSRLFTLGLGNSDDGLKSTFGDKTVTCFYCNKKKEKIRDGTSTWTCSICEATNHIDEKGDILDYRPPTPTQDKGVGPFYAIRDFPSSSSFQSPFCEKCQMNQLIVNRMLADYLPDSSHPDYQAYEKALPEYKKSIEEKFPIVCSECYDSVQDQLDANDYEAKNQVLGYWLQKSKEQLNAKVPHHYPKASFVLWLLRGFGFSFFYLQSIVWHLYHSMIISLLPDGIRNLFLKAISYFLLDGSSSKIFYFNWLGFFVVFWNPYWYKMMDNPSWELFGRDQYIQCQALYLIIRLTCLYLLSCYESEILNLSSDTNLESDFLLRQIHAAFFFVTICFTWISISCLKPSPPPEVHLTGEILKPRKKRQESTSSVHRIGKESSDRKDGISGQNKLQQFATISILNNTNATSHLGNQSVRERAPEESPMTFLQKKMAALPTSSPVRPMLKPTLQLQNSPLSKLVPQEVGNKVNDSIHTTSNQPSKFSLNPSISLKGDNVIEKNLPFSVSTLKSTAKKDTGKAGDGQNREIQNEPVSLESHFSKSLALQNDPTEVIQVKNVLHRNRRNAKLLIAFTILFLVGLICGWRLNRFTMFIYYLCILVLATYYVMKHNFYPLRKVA
Assay: two-hybrid; split-ubiquitin membrane yeast two-hybrid (MYTH) in S. cerevisiae; bait-Cub-LexA-VP16 strains mated with the arrayed Nub prey library, diploids spotted in quadruplicate on SD-leu-trp-ade-his with 25 mM 3-AT, imaged every 24 hr for 4 days; positive by a colony density cutoff
Conditions: remark: other sources report otherwise

- binding: no binding
B1: Sad1 MYTH prey, Q09825 1-514 (protein)
chain: MFTNTPVGGKRERQNGAHPAWSTLGANSAQIHQNTADLASKMHKLRYTKIRSPPTRVSIESITPKQRFPAPNFEQAYHSNIRYEQEESDNEEFENVVKNGHEASTNVFYESDGDDEEFVNEEYENSIDEESDDEGYSLNEDTTATNASFRYPMNQRSTRKSQFYSSKFKPLLWFGITLFSTLLIITLLHKGQEFYSRSFSSDNSQPSNSPVPNIPPASNDTKTSLKPDIIKDFTDSPSKVGGNEEFDYSTGDLITKKEFDKILQQKVEQLKQSLKEEMSNYKSSVPFEVELNDDWKFFIESTVRKYLTDPVSMPNFALLSTGAEVLPALTSKRYVRRPSAFIPRFTSYFFDSLVVRGHEPSIALTPNNAVAMCWSFQGSEGQLGISLSRPVYVTNVTIEHVQHKIAHDLSSAPKDFELWVQGMSSKMFVLLGKARYSLTEDSIQTFSFESSNYIVAEPIQNVILKIKSNWGNPNYTCLYQVRVHGTVPNADEQPIPSLGEKAESTAENTGQDSS
